# Source: PMC6212790
# Some of the results follow. At the low end of the ranking the order means little.
# Target: T1, GST-Rok (full length) (UniProt O34857)
# T1 sequence: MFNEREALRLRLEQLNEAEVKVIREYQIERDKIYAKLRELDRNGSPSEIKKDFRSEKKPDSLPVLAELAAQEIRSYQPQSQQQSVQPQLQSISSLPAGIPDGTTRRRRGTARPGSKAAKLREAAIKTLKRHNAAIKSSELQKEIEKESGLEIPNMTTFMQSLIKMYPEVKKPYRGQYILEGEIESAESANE
# Test: protein binding microarray;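 note: rank score from −0.5 (least bound) to 0.5 (best bound)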
# Settings: Rok is a gene silencer of Bacillus subtilis; high values mean tight binding; most listed sequences are background and not binding sites; double strand, one strand shown
row,Sequence,binding signal
1,CAGAGGGC,-0.261 E-score
2,TATGGGGA,-0.235 E-score
3,CCGCGGGA,-0.175 E-score
4,AATTCTCT,0.12 E-score
5,ATCGCCTC,-0.0171 E-score
6,GCATGAAC,-0.0782 E-score
7,CGTGTCTA,0.213 E-score
8,CTAAGGCC,-0.158 E-score
9,CGTCAGCA,-0.192 E-score
10,AAAACTGA,0.0676 E-score
11,ACGGTCCG,-0.287 E-score
12,ATGCTTCC,-0.335 E-score
13,AAGACCGC,-0.197 E-score
14,GCTAAAAA,0.0922 E-score
15,GAGCAGCC,-0.306 E-score
16,AGCGATCC,-0.305 E-score
17,ATATAACC,0.224 E-score
18,CTGTAAAC,0.0967 E-score
19,CCCGGATC,-0.252 E-score
20,AGAGTAAA,0.18 E-score
21,ATAGATCC,0.234 E-score
22,CGTTATAG,0.0316 E-score

row,Sequence,binding signal
1,GACCACAC,-0.0733 E-score
2,GTGGTTGA,0.0508 E-score
3,GGTACCAA,0.233 E-score
4,CAAATGTA,0.289 E-score
5,CAAAGCTC,-0.0842 E-score
6,CAACCAGG,-0.27 E-score
7,CTCTCCCA,-0.272 E-score
8,ACCGATAT,0.338 E-score
9,CCAGAAGA,-0.12 E-score
10,AGTGGCAG,-0.029 E-score
11,GAGGGTAA,0.0972 E-score
12,CTGCGAGA,-0.11 E-score
13,GGGAGTAC,-0.259 E-score
14,CATTGCCC,-0.0965 E-score
15,GTTTCCGA,-0.0265 E-score
16,CTTCACGC,-0.281 E-score
17,CCTTTCCA,-0.177 E-score
18,CAGACAGC,-0.095 E-score
19,CAATATTC,0.21 E-score
20,CCACTAAA,0.0654 E-score
21,CATGTTGC,-0.0145 E-score
22,CAGGGGGG,-0.383 E-score

row,Sequence,binding signal
1,GGGGTGGA,-0.361 E-score
2,ACCCACTG,-0.1 E-score
3,CACATCCC,-0.146 E-score
4,ATCCCGCG,-0.00592 E-score
5,GTGAGTCA,-0.204 E-score
6,ACGCCTGA,-0.0421 E-score
7,ATCAGTAC,0.085 E-score
8,AGCAGTTA,0.00652 E-score
9,ATTATGAC,0.0547 E-score
10,ATGAACCA,-0.0368 E-score
11,ATATAAAG,0.17 E-score
12,AAATGACT,0.138 E-score
13,AAACATCT,0.0882 E-score
14,ATTGATTA,0.238 E-score
15,GAAGCCCA,-0.377 E-score
16,AACGTCGC,0.134 E-score
17,AGTCGAAG,-0.0264 E-score
18,GACTTTCC,-0.0947 E-score
19,GGAAGTGA,-0.249 E-score
20,CGGCCAAG,-0.205 E-score
21,GTCAAAGA,0.00723 E-score
22,CTCGTAAG,0.0913 E-score

row,Sequence,binding signal
1,ACCCAAAC,0.0222 E-score
2,CGCAATTA,0.0544 E-score
3,TGGACCCA,-0.244 E-score
4,ATGCCCAT,-0.164 E-score
5,CAGCTTGG,-0.178 E-score
6,TGGTGACA,0.0376 E-score
7,TATAGTAA,0.389 E-score
8,CAGCGAGA,-0.121 E-score
9,ACAATAAG,0.0497 E-score
10,AGATTTAT,0.174 E-score
11,AAAATGAA,-0.0184 E-score
12,ACAGACTG,-0.268 E-score
13,AACCCTTA,-0.115 E-score
14,GCTCTCAC,-0.295 E-score
15,GACCGCTC,-0.154 E-score
16,CTACCGCC,0.0536 E-score
17,AATTGTTA,0.308 E-score
18,TTAAGTAA,0.255 E-score
19,CATACAGC,-0.16 E-score
20,CAACGGGC,-0.269 E-score
